Laboratory results taken from the supplement of paper PMC7826260.
The list shows a part of the results. One pool of 16,384 single-stranded DNAs met each Rep nickase domain in vitro (3 µM enzyme, 1 h, 37 °C); shown is the middle of each 90-letter strand. Uncut reads are compared with the no-enzyme pool on a log2 scale; strong cutting gives strongly negative numbers. There is no active / inactive call. Counts are relative to all reads, so uncut sequences can rise above 0 when many others are cut.

What follows are sequences tested on T1, Rep nickase domain of tomato golden mosaic virus (assay: uncleaved DNA left, log2 of reads against the no-enzyme library (log2 ratio); higher = less cleavage (more negative = more Rep cleavage of the k-mer); sequences stand for … in CTCGTCCG…ACCGGAGA).
T1 sequence (protein, residues 1-124, tag omitted): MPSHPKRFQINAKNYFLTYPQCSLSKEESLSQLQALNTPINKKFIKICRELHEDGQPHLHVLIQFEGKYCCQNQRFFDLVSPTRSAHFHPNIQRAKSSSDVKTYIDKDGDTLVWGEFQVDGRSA
Description: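 A pool of 90-nt single-stranded DNAs with seven random bases just before the constant AC of the nick site (name = the seven bases) was cut by 3 µM recombinant His6-SUMO-tagged Rep nickase domain (300 nM DNA, 50 mM HEPES pH 8.0, 50 mM NaCl, 1 mM MnCl2, 1 h, 37 °C, three replicates). Uncut DNA was amplified and sequenced.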
GTCTTAC was tested, and the “uncleaved DNA left (log2)” value was 0.0327. In the case of GTCGACA, the “uncleaved DNA left (log2)” value is reported as 0.0709. For TTGATTG, the “uncleaved DNA left (log2)” value was -0.119. In the case of ACGATAG, the “uncleaved DNA left (log2)” value is reported as 0.105. In the case of CTACAGG, the “uncleaved DNA left (log2)” value is reported as 0.0753. For AAACCGA, the “uncleaved DNA left (log2)” value was 0.0781. For TTGGGCA, the “uncleaved DNA left (log2)” value was 0.137. In the case of TCGTTTG, the “uncleaved DNA left (log2)” value is reported as -0.0733. AACAAGC was tested, and the “uncleaved DNA left (log2)” value was 0.0819. In the case of ATCAGCC, the “uncleaved DNA left (log2)” value is reported as -0.0336. TCAAGCA was tested, and the “uncleaved DNA left (log2)” value was 0.0906. With GCTTTCG the “uncleaved DNA left (log2)” value was -0.256. In the case of CCTGTAA, the “uncleaved DNA left (log2)” value is reported as 0.0738. With AGTAATC the “uncleaved DNA left (log2)” value was 0.0629. With TAGGATG the “uncleaved DNA left (log2)” value was 0.12. CAATGAC was tested, and the “uncleaved DNA left (log2)” value was -0.12. For GTTCAGT, the “uncleaved DNA left (log2)” value was 0.0493. For GAGGCAT, the “uncleaved DNA left (log2)” value was -0.101. For CTCACAA, the “uncleaved DNA left (log2)” value was -0.0622. TGGTATG was tested, and the “uncleaved DNA left (log2)” value was -0.0797. TCATTGG was tested, and the “uncleaved DNA left (log2)” value was -0.0533. In the case of TCAGTCG, the “uncleaved DNA left (log2)” value is reported as 0.0869. For TTTCAAA, the “uncleaved DNA left (log2)” value was 0.096. ATGTCTT was tested, and the “uncleaved DNA left (log2)” value was -0.0794. With TCCGACC the “uncleaved DNA left (log2)” value was -0.0245. In the case of CAGCTCA, the “uncleaved DNA left (log2)” value is reported as 0.0349. For TCTGTAA, the “uncleaved DNA left (log2)” value was -0.0422. In the case of TAAATTA, the “uncleaved DNA left (log2)” value is reported as -0.337. CACGCTG was tested, and the “uncleaved DNA left (log2)” value was -0.00212. With TCGTGGT the “uncleaved DNA left (log2)” value was -0.125. In the case of CCCCCTA, the “uncleaved DNA left (log2)” value is reported as -0.0713. In the case of AAAGCGA, the “uncleaved DNA left (log2)” value is reported as -0.00575. In the case of GACGGGT, the “uncleaved DNA left (log2)” value is reported as 0.189. With AAAGGGC the “uncleaved DNA left (log2)” value was -5.66e-05. In the case of CCGAGAT, the “uncleaved DNA left (log2)” value is reported as 0.238. With TGCTCGA the “uncleaved DNA left (log2)” value was -0.201. With ACGTATA the “uncleaved DNA left (log2)” value was -0.0331. For TGATTGT, the “uncleaved DNA left (log2)” value was -0.0488. With GCCGCAG the “uncleaved DNA left (log2)” value was 0.14. In the case of AAAGAAT, the “uncleaved DNA left (log2)” value is reported as 0.286.
